# According to the supplement of paper PMC3334620:
# In all, about 33,000 sequences were measured (“E-score (-0.5 to 0.5)”: median about -0.017, highest 2% from about 0.3 on). The list shows a part of the results.
# Target: T1, Sut1 (UniProt P53032)
# T1 sequence: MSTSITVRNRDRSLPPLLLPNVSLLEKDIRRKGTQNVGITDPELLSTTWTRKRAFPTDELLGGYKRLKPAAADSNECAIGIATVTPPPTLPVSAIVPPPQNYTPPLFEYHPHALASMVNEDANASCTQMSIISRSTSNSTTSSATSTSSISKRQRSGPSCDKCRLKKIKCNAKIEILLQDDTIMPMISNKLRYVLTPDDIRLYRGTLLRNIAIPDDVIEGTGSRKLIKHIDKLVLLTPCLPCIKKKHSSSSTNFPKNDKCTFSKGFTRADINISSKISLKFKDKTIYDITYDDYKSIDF
# Test: PBM E-score (8-mer binding enrichment) (E-score (-0.5 to 0.5)); higher = stronger / more preferred TF binding; most listed sequences are background and not binding sites
# Details: protein concentration: 200 nM; construct: GST-full length
# Procedure, shortened: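 PURExpress in vitro transcription/translation supplied GST-tagged yeast transcription factors, either full-length or DNA-binding domain. Applied at about 100-200 nM to universal all-10-mer Agilent arrays double-stranded by primer extension, the bound protein was detected with fluorescent anti-GST. E-scores, modified Wilcoxon-Mann-Whitney statistics, were given by the Universal PBM Analysis Suite to ungapped eight-base words pooled with their reverse complements after masliner normalisation.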
row,Sequence,PBM E-score
1,GAATACCC,-0.111
2,CTTTATAC,0.0888
3,CAGACTCC,0.0916
4,ACAAGTAA,0.00723
5,CGCCAGAC,-0.117
6,ACTAATCT,0.205
7,ACACGATC,0.0362
8,AGGCTGGA,-0.299
9,CATCCGCC,0.0389
10,AAGTTCGT,-0.2
11,GAGCTGCA,-0.0497
12,AGATTAGA,0.123
13,CCGTCATC,-0.214
14,ATGATTCA,-0.0566
15,CGCGCCCC,-0.28
16,ATGACCTA,0.0964
17,ACCGGCTC,-0.129
18,ACACCTCA,-0.142
19,CTATGATC,0.0165
20,ATAACTAG,0.114
21,GACGCACA,-0.013
22,ACCCTGAG,-0.102
23,TCCGAAAA,0.353
24,ACTCTCGG,0.222

row,Sequence,PBM E-score
1,GATGGACA,0.0137
2,CACCCATA,-0.301
3,CAAAGACC,0.0716
4,GAATCGGC,0.0753
5,GTTCAAAA,0.0621
6,CCAGGTTA,-0.0537
7,GTGAGAGA,-0.175
8,ACGTGACC,-0.124
9,ACGCAGCA,-0.131
10,GATAAGCA,0.0379
11,AGGCACAC,-0.303
12,AGGGGTGC,-0.364
13,CATCTGAG,-0.143
14,CGATACTA,0.193
15,TGATGGCA,-0.121
16,CACTATCG,0.0427
17,ATGATTGC,0.045
18,AGCTTCGG,0.111
19,CACTGGCC,-0.137
20,CCATTAAA,0.0785
21,AGAAGATA,0.276
22,CGTTTATA,0.17
23,CTCCGCAA,0.271
24,CTTCCGGC,0.0877

row,Sequence,PBM E-score
1,CCTCGAGG,-0.221
2,GCGGACAA,0.23
3,AGTATGCA,-0.0849
4,AAGAGTTG,0.0464
5,CACTCGAA,-0.11
6,GGCTATCA,-0.203
7,AGGGAGGG,-0.158
8,AGTAGTGA,0.0779
9,AGAGGGAT,-0.201
10,CTCTACCA,-0.0474
11,CTCGCCAG,-0.204
12,GTCCGGAC,0.469
13,CACCCGGC,-0.285
14,AGAATGAC,0.0454
15,ACCAATCG,0.00273
16,ACCTCAGG,-0.281
17,GTTCCAAC,0.0919
18,ACTCGCTG,0.0106
19,CAGAGGCG,-0.259
20,TAGTTACA,0.0671
21,CAGTCTTC,-0.165
22,AAGTGAAT,0.234
23,AGCTCGAG,-0.282
24,AACTAGAC,0.041

row,Sequence,PBM E-score
1,CGTATACG,0.216
2,GTCATATA,0.213
3,GAGCGCAC,-0.0866
4,ATCAGGCC,-0.101
5,GAATTTCC,0.0821
6,GAAGGAAC,-0.0109
7,TGCCGCCA,-0.0294
8,AATCAGAT,0.0945
9,AAGTCGGA,0.226
10,CTCTCGAA,-0.282
11,GTGAACTA,0.101
12,GGATATGA,0.127
13,CGGAAGAG,-0.0486
14,ACCTACGG,-0.15
15,ACAAACTC,0.214
16,AAAAATAC,0.132
17,GAAAGTGC,0.0396
18,GCTGAGCA,-0.181
19,GAGCGACA,-0.137
20,CTTTAAGA,0.207
21,GCCCGCCC,-0.27
22,CACAGTAA,0.101
